# Experimental data from the supplement of paper PMC4166925.
# ± gives the standard deviation of the averaged measurements. Over roughly 33,000 sequences, “E-score (dimensionless, -0.5 to 0.5)” has its median near -0.046; the highest 2% begin near 0.36. The list shows a part of the results.
# System: T1, SpTbr T-box DNA-binding domain (GST fusion)
# T1 sequence: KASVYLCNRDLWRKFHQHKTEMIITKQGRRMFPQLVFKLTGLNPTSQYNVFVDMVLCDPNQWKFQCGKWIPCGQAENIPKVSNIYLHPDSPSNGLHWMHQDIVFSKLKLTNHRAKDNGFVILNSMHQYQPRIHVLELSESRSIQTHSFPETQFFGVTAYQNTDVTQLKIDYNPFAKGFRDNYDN
# Assay: PBM E-score of 8-mer (E-score (dimensionless, -0.5 to 0.5)); Tbr is Tbrain of the sea star Patiria miniata (Pm) or the sea urchin Strongylocentrotus purpuratus (Sp); higher = stronger binding preference; most listed sequences are background and not binding sites
# Conditions: the construct has about 5 more residues each side
# Experimental: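 Universal protein-binding microarray (Agilent AMADID 016060, 60-bp probes with a 35-bp variable region) incubated with 200 nM GST-fused Strongylocentrotus purpuratus Tbr T-box DNA-binding domain (residues 362-554) in PBS pH 7.5. Scored for every ungapped 8-mer (given with its reverse complement) as E-score (range -0.5 to 0.5; >0.45 counts as bound) and Z-score of median probe intensity. Two replicate arrays (datasets 1 and 2).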
# 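Further: protein at 200 nM in PBS on universal double-stranded arrays.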
row,Sequence,PBM E-score of 8-mer
1,ATGGTAGC,-0.0119 ± 0.043
2,AGGGGCTC,-0.19 ± 0.036
3,TACCCTCA,-0.129 ± 0.052
4,GCCCAGTA,-0.317 ± 0.047
5,AAGGTACC,-0.0254 ± 0.032
6,GTTACAAA,0.0843 ± 0.029
7,CCAGCGCA,0.053 ± 0.05
8,TAAGCGTA,-0.151 ± 0.1
9,CGCGGTTC,0.248 ± 0.017
10,AGGAGGCG,0.188 ± 0.0036
11,GAGGCACA,-0.0216 ± 0.022
12,ATTGCCGA,0.0197 ± 0.05
13,AGCCTGCA,-0.302 ± 0.061
14,CTATATAG,0.0511 ± 0.096
15,CCAATTTA,-0.0787 ± 0.089
16,AGAATGGA,-0.1419 ± 0.00046
17,CTTCCCCA,0.0679 ± 0.013
18,CTAAAGTA,-0.152 ± 0.067
19,GGTGTACA,0.124 ± 0.027
20,AACGCCTC,0.35 ± 0.0088
21,CCAGTAAC,-0.0456 ± 0.12
22,CGCTTATC,0.114 ± 0.058
23,ACCCGTAG,-0.108 ± 0.068
24,ACAACCTC,0.188 ± 0.052

row,Sequence,PBM E-score of 8-mer
1,ATCGCAAG,0.177 ± 0.03
2,CAGGGGCG,0.178 ± 0.0098
3,AACGACCT,-0.022 ± 0.073
4,CTGTGTGA,0.341 ± 0.0081
5,CATTGCGG,-0.135 ± 0.14
6,TTCATGAA,-0.226 ± 0.058
7,GCGTGTGA,0.399 ± 0.0074
8,CAGCGCGA,0.199 ± 0.0059
9,CGCTACCG,0.161 ± 0.065
10,AGCATAGC,-0.135 ± 0.061
11,GGTCTCTA,-0.0913 ± 0.053
12,GGAGTAAC,-0.105 ± 0.093
13,AGCGATCA,-0.012 ± 0.037
14,AAAGCAGG,0.0689 ± 0.054
15,GCATCCCA,-0.16 ± 0.063
16,GGTTGGTA,0.0117 ± 0.0092
17,CATGGGGG,-0.208 ± 0.089
18,TGCCGGCA,-0.014 ± 0.024
19,GCCCCGAA,-0.289 ± 0.048
20,CTATGATA,-0.0559 ± 0.048
21,CAGCTCTA,0.0297 ± 0.058
22,AAACGGGA,-0.195 ± 0.016
23,AAAAATCG,0.0348 ± 0.06
24,AAGCTCCT,-0.254 ± 0.0019

row,Sequence,PBM E-score of 8-mer
1,AAGTTCCG,-0.08626 ± 0.00049
2,GTGCAGGA,-0.022 ± 0.029
3,TACTGAGA,-0.222 ± 0.019
4,ACTTCTTA,0.0319 ± 0.0027
5,CTTGTGGC,0.0823 ± 0.0071
6,ATTATAAT,0.0341 ± 0.035
7,CACTTAAC,0.254 ± 0.023
8,GTACGTTA,-0.0864 ± 0.023
9,ACCTCCGT,0.294 ± 0.014
10,ACAATCAG,-0.0516 ± 0.0027
11,CACGGCAC,0.136 ± 0.0037
12,GGGTCTTA,-0.234 ± 0.013
13,ACCAACTC,-0.0494 ± 0.099
14,ACGCCAGT,0.103 ± 0.015
15,CTTATACC,-0.158 ± 0.0016
16,AGTCTAAA,-0.245 ± 0.028
17,CCAGAAAC,-0.0652 ± 0.12
18,GGGGCCCC,-0.206 ± 0.032
19,CTTCCGAC,-0.0491 ± 0.042
20,GTTTCGTA,0.0678 ± 0.063
21,AAGTTGCA,-0.0877 ± 0.04
22,AAGCGGCA,-0.0503 ± 0.027
23,GAAGCAAA,-0.213 ± 0.071
24,CGGGGCGA,0.00653 ± 0.024

row,Sequence,PBM E-score of 8-mer
1,AGTACGAT,-0.142 ± 0.0097
2,CAGTAGGC,0.000145 ± 0.048
3,AACCCAAG,-0.0609 ± 0.0022
4,CCGCGCGA,0.203 ± 0.03
5,GTTATATA,-0.0254 ± 0.014
6,TGTACGAA,-0.0938 ± 0.015
7,CTCGAGAC,-0.0685 ± 0.051
8,ATCAACTC,0.162 ± 0.063
9,CTATCGGC,0.0551 ± 0.08
10,CGTTGTGC,0.151 ± 0.022
11,AAGGCGAC,0.245 ± 0.017
12,ACGGCAGT,-0.173 ± 0.031
13,CAGCTGAC,0.0252 ± 0.062
14,CACACTCG,0.426 ± 0.019
15,CACGTCGC,0.258 ± 0.021
16,GCAGGAGC,-0.139 ± 0.0006
17,ATCCACAA,-0.0482 ± 0.053
18,GAGATATA,-0.166 ± 0.0067
19,ATTCCTTC,-0.213 ± 0.035
20,ACGAATAC,-0.0938 ± 0.04
21,AGTTGTGA,0.407 ± 0.0049
22,AATACGGC,-0.0576 ± 0.085
